Source: paper PMC4336329 (PLoS ONE, 2015)
About 2,200 (0.71%) of roughly 310,000 compounds showed an effect of 50% or more. The effect is printed as a negative number. The list shows a part of the results.

Each compound was assayed against human ether-à-go-go-related gene (hERG) potassium channel (human, UniProt Q12809) (assay: primary screen, population patch clamp on CHO cells stably expressing hERG).
human ether-à-go-go-related gene (hERG) potassium channel, sequence (Q12809 whole entry, looked up): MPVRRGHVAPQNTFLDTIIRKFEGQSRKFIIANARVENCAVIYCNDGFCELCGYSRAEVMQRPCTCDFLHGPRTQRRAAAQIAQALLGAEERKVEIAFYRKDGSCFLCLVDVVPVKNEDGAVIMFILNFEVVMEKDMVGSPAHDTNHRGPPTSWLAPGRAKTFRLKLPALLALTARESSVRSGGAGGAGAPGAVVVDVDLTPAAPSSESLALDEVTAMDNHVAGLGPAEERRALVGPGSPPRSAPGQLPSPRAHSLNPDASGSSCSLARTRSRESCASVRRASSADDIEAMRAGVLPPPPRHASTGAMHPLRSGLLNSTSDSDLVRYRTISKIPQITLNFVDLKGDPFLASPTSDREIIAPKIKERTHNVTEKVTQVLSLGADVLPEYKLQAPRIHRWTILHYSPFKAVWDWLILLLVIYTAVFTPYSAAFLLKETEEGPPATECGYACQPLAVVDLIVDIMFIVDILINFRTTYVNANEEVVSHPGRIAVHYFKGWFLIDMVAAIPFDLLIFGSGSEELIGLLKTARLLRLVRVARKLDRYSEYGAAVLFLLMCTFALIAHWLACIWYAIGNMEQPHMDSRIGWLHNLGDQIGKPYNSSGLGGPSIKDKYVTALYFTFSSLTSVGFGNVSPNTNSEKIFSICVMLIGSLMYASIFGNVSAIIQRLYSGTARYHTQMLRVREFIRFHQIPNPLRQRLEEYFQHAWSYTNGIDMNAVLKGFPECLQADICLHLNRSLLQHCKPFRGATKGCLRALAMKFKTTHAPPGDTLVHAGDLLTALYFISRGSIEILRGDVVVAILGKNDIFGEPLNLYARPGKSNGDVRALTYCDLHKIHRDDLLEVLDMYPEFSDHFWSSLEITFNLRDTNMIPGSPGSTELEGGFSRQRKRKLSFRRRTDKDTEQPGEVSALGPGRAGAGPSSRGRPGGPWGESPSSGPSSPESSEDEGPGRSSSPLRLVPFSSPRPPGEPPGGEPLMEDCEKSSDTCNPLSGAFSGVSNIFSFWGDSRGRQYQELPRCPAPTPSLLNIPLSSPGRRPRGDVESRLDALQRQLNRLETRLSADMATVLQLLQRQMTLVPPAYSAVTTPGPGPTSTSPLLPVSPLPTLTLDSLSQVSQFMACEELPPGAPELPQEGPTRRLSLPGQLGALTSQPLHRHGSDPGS
For `Cc1[nH]c(=O)[nH]c(=O)c1S(=O)(=O)N1CCCC(C(=O)NCCc2ccccc2)C1` (centres unmarked), the “hERG current change (%, negative = inhibition) at 1uM” value was 14%. In the case of `CCC(CC)C(=O)N1N=C(c2ccc(NS(C)(=O)=O)cc2)CC1c1ccccc1` (centres unmarked), the “hERG current change (%, negative = inhibition) at 1uM” value is reported as -1.15%. For `O=C(O)c1nn(Cc2csc(-c3ccccc3)n2)c(=O)c2ccccc12`, the “hERG current change (%, negative = inhibition) at 1uM” value was 6.44%. `O=C(NC1CC1)c1ccc(NS(=O)(=O)c2ccc(F)cc2)cc1` was tested, and the “hERG current change (%, negative = inhibition) at 1uM” value was -29.2%. In the case of `c1ccc(COc2cccc(CNn3cnnc3)c2)cc1`, the “hERG current change (%, negative = inhibition) at 1uM” value is reported as 11.6%. `COc1ccc(OC)c(CCNC(=O)C(C)n2nc(C)c3c(C)n(-c4ccccc4)nc3c2=O)c1` (centres unmarked) was tested, and the “hERG current change (%, negative = inhibition) at 1uM” value was 9.86%. For `CC1(C)CC(=O)C2=C(C1)OC(N)=C(C#N)C2c1ccc(OC(=O)N2CCOCC2)cc1` (centres unmarked), the “hERG current change (%, negative = inhibition) at 1uM” value was -2.96%. `CN1C(=O)C(O)(C2CCCCCC2=O)c2ccccc21` (centres unmarked) was tested, and the “hERG current change (%, negative = inhibition) at 1uM” value was 4.63%. In the case of `c1ccc(CC2CCN(C3=Nc4cccc5cccc3c45)CC2)cc1`, the “hERG current change (%, negative = inhibition) at 1uM” value is reported as -27.6%. For `N#CCC(=O)c1ccccc1Oc1ccc(Cl)cc1`, the “hERG current change (%, negative = inhibition) at 1uM” value was 16.5%. With `O=C(O)COc1ccccc1/C=N/NC(=O)c1cc(-c2ccccc2)nc2ccccc12` the “hERG current change (%, negative = inhibition) at 1uM” value was 12.5%. In the case of `COC(=O)c1ccc(CSc2n[nH]c(-c3ccccc3)n2)o1`, the “hERG current change (%, negative = inhibition) at 1uM” value is reported as 12.4%. In the case of `CC(CCc1ccccc1)NC(=O)c1nnc(Cc2ccc(Cl)cc2)o1` (centres unmarked), the “hERG current change (%, negative = inhibition) at 1uM” value is reported as 11.4%. With `O=C(NNS(=O)(=O)c1ccccc1)C1CCN(S(=O)(=O)c2ccccc2)CC1` the “hERG current change (%, negative = inhibition) at 1uM” value was 9.9%. For `CC1CCCCN1S(=O)(=O)c1ccc(C(=O)Nc2sccc2C(N)=O)cc1` (centres unmarked), the “hERG current change (%, negative = inhibition) at 1uM” value was 13.6%. For `Cc1csc(NC(=O)c2ccccc2O)n1`, the “hERG current change (%, negative = inhibition) at 1uM” value was 2.99%. `O=C(COc1ccc(S(=O)(=O)N2CCCC2)cc1)N1CCN(c2ccccc2F)CC1` was tested, and the “hERG current change (%, negative = inhibition) at 1uM” value was 1.77%. In the case of `CNC(=O)C1CCC(=O)N1Cc1ccccc1Cl` (centres unmarked), the “hERG current change (%, negative = inhibition) at 1uM” value is reported as 7.23%. For `COc1cccc(NC(=O)COC(=O)Cn2c(C)csc2=O)c1`, the “hERG current change (%, negative = inhibition) at 1uM” value was 4.09%. In the case of `CN(C)C(=O)CSc1nnc(C23CC4CC(CC(C4)C2)C3)o1`, the “hERG current change (%, negative = inhibition) at 1uM” value is reported as 9.12%. `COc1ccc(CN(C(=O)CN2C(=O)c3ccccc3S2(=O)=O)C(C(=O)NCC2CCCO2)c2ccncc2)cc1` (centres unmarked) was tested, and the “hERG current change (%, negative = inhibition) at 1uM” value was 0.0687%. For `Cn1c(N)c(C(=O)CSc2nnc(Cc3cccs3)n2C2CC2)c(=O)n(C)c1=O`, the “hERG current change (%, negative = inhibition) at 1uM” value was 5.11%. With `CC1(CCc2ccccc2)NC(=O)N(CC(=O)O)C1=O` (centres unmarked) the “hERG current change (%, negative = inhibition) at 1uM” value was 10.9%. With `CCC(=O)N1CCN(c2ccc(NC(=O)COc3ccccc3Cl)cc2)CC1` the “hERG current change (%, negative = inhibition) at 1uM” value was -5.62%. `CC(C)NC(=O)CSc1nnc(-c2ccc(C(C)(C)C)cc2)n1C` was tested, and the “hERG current change (%, negative = inhibition) at 1uM” value was 3.21%. For `COC(=O)c1ccc(NC(=O)CSc2nc(N)c(NC(=O)c3ccc(Br)o3)c(=O)[nH]2)cc1`, the “hERG current change (%, negative = inhibition) at 1uM” value was 15.6%. `COCCN1Cc2cccc(C(=O)Nc3ccccc3OC)c2C1=O` was tested, and the “hERG current change (%, negative = inhibition) at 1uM” value was -6.84%. For `COc1ccc(OCC(=O)N2CCN(c3nnc(-c4ccccc4)c4ccccc34)CC2)cc1`, the “hERG current change (%, negative = inhibition) at 1uM” value was -12.4%. With `Cc1ccccc1C(=O)NCC(=O)NNC(=O)c1cccc(Cl)c1` the “hERG current change (%, negative = inhibition) at 1uM” value was 12.1%. `CCOC(=O)C1(CCOC)CCN(C(=O)Cc2ccc3ccccc3c2)CC1` was tested, and the “hERG current change (%, negative = inhibition) at 1uM” value was 9.92%. With `CCc1ccc(NC(=O)CCn2ccnc2C)cc1` the “hERG current change (%, negative = inhibition) at 1uM” value was 6.77%. For `Cn1c(C(=O)OC(C(=O)NC2CCCC2)c2ccncc2)cc2sccc21` (centres unmarked), the “hERG current change (%, negative = inhibition) at 1uM” value was 9.29%. With `Cc1nn(-c2c(Cl)cc(Cl)cc2Cl)c(=O)c2ccccc12` the “hERG current change (%, negative = inhibition) at 1uM” value was 10.6%. `Cc1ccc(NC(=O)NN(C)c2c(Cl)c(Cl)nn2C)cc1` was tested, and the “hERG current change (%, negative = inhibition) at 1uM” value was -5.56%. For `CC(NC(=O)CCSc1nc(-c2ccc3c(c2)OCO3)cc(C(F)(F)F)n1)c1ccccc1` (centres unmarked), the “hERG current change (%, negative = inhibition) at 1uM” value was 9.24%. With `CCOc1ccc(S(=O)(=O)N(CC(=O)O)c2ccc(C)cc2)cc1` the “hERG current change (%, negative = inhibition) at 1uM” value was 6.51%. With `Cc1nn(-c2ccccc2)c(C)c1C(=O)OC/C(O)=C(\C#N)c1nc2ccccc2[nH]1` the “hERG current change (%, negative = inhibition) at 1uM” value was 8.32%. In the case of `O=c1[nH]c(-c2ccccc2)nnc1-c1ccccc1`, the “hERG current change (%, negative = inhibition) at 1uM” value is reported as 5.87%. In the case of `Cc1cc(C)n(CC(=O)N2CCCC(N3CCN(c4ccc(F)cc4)CC3)C2)n1` (centres unmarked), the “hERG current change (%, negative = inhibition) at 1uM” value is reported as 1.87%. For `O=C(Nc1cccc(S(=O)(=O)NC2=NCCC2)c1)c1c(F)cccc1Cl`, the “hERG current change (%, negative = inhibition) at 1uM” value was 6.59%. In the case of `Cc1cc(C)cc(NCC(=O)Nc2c(C)cccc2C)c1`, the “hERG current change (%, negative = inhibition) at 1uM” value is reported as 13.6%. With `COc1ccc(-n2ccnc2SCC(=O)NCc2ccccc2)c(OC)c1` the “hERG current change (%, negative = inhibition) at 1uM” value was 19.9%. `Cc1oc(-c2cccc(C(F)(F)F)c2)nc1CN1CCC[C@H]1CO` was tested, and the “hERG current change (%, negative = inhibition) at 1uM” value was 2.44%. With `CNCC(O)CN1CCN(c2ccccc2OC)CC1.Cl` (centres unmarked) the “hERG current change (%, negative = inhibition) at 1uM” value was 8.1%. With `Cc1ccc(OCCn2ncc3ccccc3c2=O)c(C)c1` the “hERG current change (%, negative = inhibition) at 1uM” value was 12.6%. With `COc1ccc(NC(=O)N2CCC(n3nnc4cc(C)ccc43)CC2)cc1` the “hERG current change (%, negative = inhibition) at 1uM” value was -7.74%. In the case of `CCCCN1C(=O)c2ccc(C(=O)NC3=NCCS3)cc2C1=O`, the “hERG current change (%, negative = inhibition) at 1uM” value is reported as 10.6%. For `O=C(NNC(=O)c1cccnc1)Nc1cccc(Cl)c1Cl`, the “hERG current change (%, negative = inhibition) at 1uM” value was 12.7%. With `O=C(O)c1c(F)c(F)cc2ccccc12` the “hERG current change (%, negative = inhibition) at 1uM” value was 3.1%. In the case of `COc1ccc(CN(C)C(c2ccccc2)c2nnnn2-c2ccccc2C)c(OC)c1C` (centres unmarked), the “hERG current change (%, negative = inhibition) at 1uM” value is reported as 11.5%. With `COc1ccc(CC(=O)Nc2ccccc2C(C)=O)cc1S(=O)(=O)N1CCOCC1` the “hERG current change (%, negative = inhibition) at 1uM” value was -15.6%. In the case of `CC(C)(O)C#Cc1ccc(C(=O)N2CCN(c3ccc(F)cc3)CC2)cc1`, the “hERG current change (%, negative = inhibition) at 1uM” value is reported as 5.2%. For `NNC(=O)CSc1ncc(-c2ccccc2)[nH]1`, the “hERG current change (%, negative = inhibition) at 1uM” value was 15.5%. For `CC(Sc1ccccn1)C(=O)Nc1ccc2c(c1)OCO2` (centres unmarked), the “hERG current change (%, negative = inhibition) at 1uM” value was 11%. In the case of `C[C@]12CC[C@@H](O)C[C@@H]1CC[C@@H]1[C@@H]2CC[C@]2(C)C(=O)CC[C@@H]12`, the “hERG current change (%, negative = inhibition) at 1uM” value is reported as 12.2%. For `COc1cc2c(cc1OC)-c1cc(Nc3ccc(C)cc3)nc(=O)n1CC2`, the “hERG current change (%, negative = inhibition) at 1uM” value was -0.489%.
